Screen size: about 340,000 compounds; about 530 (0.16%) were called active. The inconclusive results got no clear call from the source; some entries with a clear call stand among them for comparison. Rule as the data show it: active = activity change below about -80%; inconclusive = between about -30% and that limit; inactive = weaker than that.
Test: Small Molecules that selectively kill Giardia lamblia: qHTS;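 also: parasites exposed to compound for two days anaerobically before the ATP read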
Conditions: Giardia lamblia trophozoite viability; at 7.66 µM; active compounds read low
Method in brief: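 Trophozoite viability was measured as ATP-dependent luminescence, read 15-30 min after reagent addition. Before that, parasites at 100 cells/well were exposed to compounds for 48 h, anaerobically, at 37 deg C.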
% is scaled to controls: 0 for no effect and ±100 for the full control effect.

Question: With `CCC[C@@H]1CCCO[C@@](C(=O)NCc2ccccn2)(C(F)(F)F)C1` as the molecule, how does the activity change read?
Answer: Its activity change is inconclusive: -31.4% [inhibitor].

Question: With `N#Cc1ccccc1NC(=O)c1ccccc1OCC(=O)NCc1ccco1` as the molecule, how does the activity change read?
Answer: Its activity change is inactive: 34.7%.

Question: With `O=c1[nH]c2ccccc2nc1/C=C/c1ccccc1` as the molecule, how does the activity change read?
Answer: Its activity change is inconclusive: -30.7% [inhibitor].

Question: For `C=CCNCc1cccn1-c1sc2c(c1C#N)CCCC2`, which activity change is on record?
Answer: Its activity change is inactive: 6.19%.

Question: Which activity change does the source give for `Cc1cc(Br)cc(Br)c1OCC(=O)NNC(=O)CCC(=O)NCc1ccccc1` here?
Answer: The activity change was inconclusive: -32.4% [inhibitor].

Question: Which activity change does the source give for `O=C(Cc1ccc([N+](=O)[O-])cc1)N1N=C(c2ccncc2)CC1(O)C(F)(F)F` (configuration not stated) here?
Answer: The activity change was inconclusive: -36% [inhibitor].

Question: With `O=C1/C(=C/c2cccnc2)SC(=S)N1CC1CCCO1` (configuration not stated) as the molecule, how does the activity change read?
Answer: The activity change was inactive: -2%.

Question: For `COc1ccc(NC(=O)Nc2cc(C)ccn2)cc1`, which activity change is on record?
Answer: The activity change was inconclusive: -41.9% [inhibitor].

Question: For `O=C(c1ccc2c(c1)OCO2)N1CCC2(CC1)Oc1ccc(F)cc1C(=O)C21CC(c2cccnc2)=NO1` (configuration not stated), which activity change is on record?
Answer: Its activity change is inconclusive: -32.4% [inhibitor].

Question: Which activity change does the source give for `CC1CCN(c2ccc(C(=O)Nc3nnc(C4CC4)s3)cc2[N+](=O)[O-])CC1` here?
Answer: The activity change was inconclusive: -30.1% [inhibitor].

Question: For `O=C(CCCn1cnc([N+](=O)[O-])n1)Nc1cccc2ccccc12`, which activity change is on record?
Answer: Its activity change is inconclusive: -40.3% [inhibitor].

Question: For `CCCN(CCC)S(=O)(=O)c1ccc(NC(=O)C2CCCO2)cc1` (configuration not stated), which activity change is on record?
Answer: The activity change was inactive: 3.15%.

Question: For `CC(C)(C)OC(=O)NCCCC[C@H](NC(=O)c1[nH]cnc1C(=O)N[C@@H](Cc1ccccc1)C(=O)OC(C)(C)C)C(=O)OC(C)(C)C`, which activity change is on record?
Answer: The activity change was inconclusive: -35.6% [inhibitor].

Question: For `S=c1[nH]nc(-c2ccccn2)n1/N=C/c1ccc(-c2ccccc2Cl)o1`, which activity change is on record?
Answer: Its activity change is inconclusive: -33.8% [inhibitor].

Question: Which activity change does the source give for `COc1ccccc1NCCC(=O)OCC(=O)NC1CCCCCC1` here?
Answer: The activity change was inconclusive: -50% [inhibitor].

Question: With `O=C(Nc1cccc(O)c1)c1noc2c1CCc1ccccc1-2` as the molecule, how does the activity change read?
Answer: Its activity change is inconclusive: -35.6% [inhibitor].

Question: With `O=C(COc1ccc2ccccc2c1)Nc1nccs1` as the molecule, how does the activity change read?
Answer: The activity change was inconclusive: -38.3% [inhibitor].

Question: Which activity change does the source give for `COc1ccc(OC)c(-c2c3cc(O)c(=O)cc-3oc3cc(O)c(O)cc23)c1` here?
Answer: Its activity change is inactive: -16.7%.

Question: Which activity change does the source give for `CC(C)C(=O)Nc1nnc(-c2ccccc2)o1` here?
Answer: Its activity change is inactive: 8.43%.

Question: Which activity change does the source give for `CCSc1nnc(SCC(=O)N2CCN(C(=O)c3ccco3)CC2)s1` here?
Answer: Its activity change is inactive: -3.54%.

Question: Which activity change does the source give for `CC(C(=O)Nc1nc(-c2ccc(F)c(F)c2)cs1)N1C(=O)C2CC=CCC2C1=O` (configuration not stated) here?
Answer: The activity change was inactive: -11%.

Question: With `COc1ccc(S(=O)(=O)Nc2ccc3c(c2)n(C)c(=O)n3C)cc1OC` as the molecule, how does the activity change read?
Answer: Its activity change is inactive: 15.5%.

Source: PubChem BioAssay AID540267 (National Center for Advancing Translational Sciences (NCATS), 2011)
